Measured values from the supplement of paper PMC10338343.
± gives the standard deviation. This is a selection; strong and weak results do not stand in their true shares.

Tested on: MIWI (PIWIL1) piRISC loaded with L1MC piRNA (30 nt)
Assay: pre-steady-state target cleavage rate (min^-1); MIWI and MILI are mouse PIWI proteins and EfPiwi is from a freshwater sponge; tags in brackets are library labels; higher = faster piRNA-guided slicing of the target
Settings: guide: L1MC piRNA 5'p-UAACUAAAUACUAUGCAAGCUGUAGGUCCU
How it was run: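 Using HEPES–potassium acetate buffer at 33 °C, 1 nM active affinity-purified piRISC with a single synthetic guide was mixed with 0.1 nM transcribed, DNA-blocked target RNA library for 0–8 or 0–960 min, with or without 500 nM GTSF1 partner protein. Uncleaved targets were sequenced and normalised to depth and to weakly complementary targets, and three trials were pooled with k3 capped at 0.0001 min^-1. A burst-and-steady-state fit gave the pre-steady-state cleavage rate.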

[1] = auxiliary factor: 500 nM mouse GTSF1
[2] = auxiliary factor: none (no GTSF1)

Sequence	pre-steady-state target cleavage rate [1]	pre-steady-state target cleavage rate [2]
UCGACCUACAGCUUGCAUUGUAUUUAGUUA	1.08 ± 0.037	0.0381 ± 0.0094
UCGUCCUACAGCUUGCAUACUAUUUAGUUA	0.374 ± 0.015	0.0339 ± 0.0064
UCCUGCUUCAGCUUGCUUAGUAUUUAGUUA	1.19 ± 0.065	0.0264 ± 0.0058
UCCUGGAUGAGCUUGCAAAGUAUUUAGUUA	0.725 ± 0.047	0.0428 ± 0.011
UCCACCUACAGCUUGCAUAGUAUUUAAUUA	0.308 ± 0.043	0.0215 ± 0.0049
UCCUGGAUGUCCUUGAAUAGUAUUUAGUUA	0.0223 ± 0.0065	0.00268 ± 0.0026
UCCAGCUACAGCUUGCAUAGUAAUUAGUUA	0.475 ± 0.038	0.0163 ± 0.0027
UCCUGGAACAGCUAGCAUAGUAUUUAGUAA	0.639 ± 0.06	0.0137 ± 0.0038
UCCUGGAUGAGCUUGCUUAGUUUUUAGUUA	0.0242 ± 0.0064	0.00971 ± 0.0022
UCCUGGAUCAGCUUGCAUAGUAUUUUAGUUA	0.979 ± 0.05	0.0222 ± 0.0046
UCCUGCUACAGCUUGCAAAGUAUUUAGUUA	0.619 ± 0.037	0.03 ± 0.0055
AGGACCUACAGCUUGCAUAGUAUUUAGGUUA	0.443 ± 0.068	0.0392 ± 0.012
UCGACUCUACAGCUUGCAUAGUAUUUAGUUA	1.48 ± 0.06	0.0579 ± 0.0096
UCCUGGAUCAGGUUGCAUAGUAUUUAGUUA	0.568 ± 0.028	0.00786 ± 0.0024
UCCACCUACAGCUUGCAUAGUUAUUAGUUA	0.157 ± 0.021	0.0113 ± 0.0028
UGGACCUACUGCUUGCAUAGUAUUUUCAAA	0.0699 ± 0.011	0.00415 ± 0.0018
UCCUCCUACAGGUUGGAUAGUAUUUAGUUA	0.949 ± 0.063	0.0262 ± 0.0049
UCGAGCAACAGCUUGCAUAGUAUUUAGUUA	1.29 ± 0.044	0.076 ± 0.013
UCCUGGAUGUGCUUGCAUAGUAUUAAGUUA	0.179 ± 0.021	0.0164 ± 0.0047
UCGACCUACAGCUUGCAUAGUAAUUAGAUA	0.336 ± 0.038	0.00853 ± 0.0029
UCCUGGUACAGCUUGCAUAGUCUUUAGUUA	0.403 ± 0.052	0.0387 ± 0.0077
UCCUGCUUCAGCUUGCAUAGUAUUAAGUUA	0.343 ± 0.035	0.0139 ± 0.0034
UCCUGGAUGUCCUUGCAUACUAUUUAGUUA	0.0164 ± 0.0047	0.00616 ± 0.0016
UCCACCUACGAGCUUGCAUAGUAUUUAGUUA	0.622 ± 0.073	0.0286 ± 0.0055
UCGUCCUACAGCUUGCAUAGUAUUUAGAAA	0.469 ± 0.042	0.00751 ± 0.0029
UGCACCUACUGCUUGCAUAGUAUUUAGUUA	1.16 ± 0.097	0.0725 ± 0.014
UGGACCUACAGCAUGCAUACUAUUUAGUUA	0.371 ± 0.018	0.0205 ± 0.0045
UGGACCAACAGCUUGCAUAGUAUUAAGUUA	0.765 ± 0.036	0.0362 ± 0.0086

Sequence	pre-steady-state target cleavage rate [1]	pre-steady-state target cleavage rate [2]
UCGACCUACAGCUUGCAUUGUAUUUACUUA	0.49 ± 0.028	0.0226 ± 0.0052
UCGACCAUGAGCUUGCAUAGUAUUUAGAAA	0.387 ± 0.046	0.00687 ± 0.0026
UCCUCCUACAGCUUGCUUUGUAUUUAGUUA	0.212 ± 0.018	0.00483 ± 0.0015
UGGACCUACAGCUUGCAUAGUAUCUAGUUA	0.814 ± 0.055	0.0409 ± 0.0077
UCCUGGAUCAGCUUGCAUAGUUUUUACUUA	0.0546 ± 0.0099	0.00917 ± 0.0026
UCGUGGUACAGCUUGCAUAGUAUUUACAAA	0.219 ± 0.027	0.00285 ± 0.002
UCCUGGAACAGCCUUGCAUAGUAUUUAGUUA	0.851 ± 0.051	0.0663 ± 0.012
UCCACCUACAGCUAGCAUAGUAUUAAGUUA	0.516 ± 0.033	0.00634 ± 0.0019
AGGACCUACUGCUUGCAUAGUAAUUAGUUA	0.749 ± 0.053	0.0336 ± 0.0073
UCCACCUACAGCAUGCAUAGUAUUUAGUAA	0.602 ± 0.051	0.0121 ± 0.0037
UGCACCUACAGCUUGCAUAGUAAUUAGUUA	0.945 ± 0.091	0.0309 ± 0.0082
UCCAGCUACAGCUUGCAUAGUAUUUACUUA	0.356 ± 0.028	0.0264 ± 0.0037
AGGACCUACAGCUUGCAUAGUAUUGAGUUA	0.699 ± 0.068	0.085 ± 0.017
UGGACCUACAGCUUGGAUAGAAUUUAGUUA	0.359 ± 0.044	0.0169 ± 0.0058
UCCACCUACAGCUUGCAUAGGAUUUAGUUA	0.0442 ± 0.0086	0.00647 ± 0.002
UCGACCUACAGUUUGCAUAGUAUUUAGUUA	1.37 ± 0.054	0.0619 ± 0.0092
AGGACCUACAGCUUGCAAAGUAUUUACUUA	0.447 ± 0.045	0.0225 ± 0.005
UCCUCCUACACGAUGCAUAGUAUUUAGUUA	0.964 ± 0.036	0.00382 ± 0.0015
UCCUGCUACACCUUGCAUAGUAUUUAGAAA	0.395 ± 0.066	0.00341 ± 0.0027
UCGACGUACAGCUUGCAUAGUAUUUAGUUA	1.56 ± 0.046	0.0711 ± 0.011
UCCACCUACAGCUUGCAUAGUCAUUUAGUUA	0.0237 ± 0.0078	0.00374 ± 0.0029
UCCUGCGACAGCUUGCAUAGUAUUUAGUUA	1.19 ± 0.06	0.0863 ± 0.017
AGGACCUACAGGUUGCAUUGUAUUUAGUUA	0.756 ± 0.043	0.0327 ± 0.008
AGGACCUACUCGUUGCAUAGUAUUUAGUAA	0.521 ± 0.038	0.0196 ± 0.0039
UCCUGGAUCAGCUUGCAUAUUAUUUAGUUA	1.22 ± 0.058	0.0383 ± 0.011
AGGACCUACAGCGUUGCAUAGUAUUUAGUUA	1.21 ± 0.086	0.0748 ± 0.015
UCCUGGAACAGCAUGCAUAGUAUUUAGAUA	0.505 ± 0.048	0.00807 ± 0.0036
